# In PubChem BioAssay AID1671188 (National Center for Advancing Translational Sciences (NCATS), 2021):
# About 250 (0.25%) of roughly 100,000 compounds were called active. Inconclusive results, whose numbers are uncertain, are shown with a selection of clear calls. Calls follow the shape of the dose curve; as a rule, active = well fitted inhibition curve with a large enough effect; inconclusive = small, poorly fitted or top-dose-only effect; inactive = flat fitted curve, though single readings scatter. Potencies of inconclusive entries are left out as doubtful fits.
# Biological target: Alanine aminotransferase 2 (Homo sapiens) (UniProt Q8TD30)
# Assay: Primary qHTS assay for inhibitors of Glutamate pyruvate transaminase 2 (GPT2); also: nearly all actives have a fitted effect of over 60% in size
# Details: Recombinant GPT2, coupled pyruvate oxidase/HRP Amplex Red fluorescence; series mostly up to 57.7 µM
# In short: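 Inhibition is scored from Amplex Red fluorescence generated when pyruvate oxidase and HRP act on pyruvate released by GPT2. Reactions contain 10ng/uL enzyme, 250uM a-KG and 2mM L-alanine and run 30 min at room temperature.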
# Potency is read from the fitted curve at half-maximal effect; tags tell the direction and shape of the fitted curve.
# Chain of UniProt Q8TD30 (Q8TD30 whole entry, looked up): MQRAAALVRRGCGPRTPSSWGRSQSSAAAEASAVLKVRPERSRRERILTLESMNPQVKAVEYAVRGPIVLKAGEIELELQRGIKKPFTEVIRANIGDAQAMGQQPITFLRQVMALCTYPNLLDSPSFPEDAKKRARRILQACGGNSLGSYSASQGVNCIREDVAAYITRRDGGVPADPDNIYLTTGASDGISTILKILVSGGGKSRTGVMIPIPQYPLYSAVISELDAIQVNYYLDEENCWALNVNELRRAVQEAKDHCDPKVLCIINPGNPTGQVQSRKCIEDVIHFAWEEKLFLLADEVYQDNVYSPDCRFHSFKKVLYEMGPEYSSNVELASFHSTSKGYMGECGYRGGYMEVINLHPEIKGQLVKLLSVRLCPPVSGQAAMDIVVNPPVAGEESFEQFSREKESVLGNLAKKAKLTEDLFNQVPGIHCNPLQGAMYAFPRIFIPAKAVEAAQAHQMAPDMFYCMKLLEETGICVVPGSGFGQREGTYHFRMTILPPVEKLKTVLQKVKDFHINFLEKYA
row,SMILES,Potency
1,O=C1c2cccnc2OC(COc2ccccc2)CN1Cc1cccs1 (stereo not drawn),"inconclusive [inhibitor, partial curve, poor fit]"
2,O=C(C1CC(=O)N(c2n[nH]c3ccccc23)C1)N1CCN(CCc2ccncc2)CC1 (stereo not drawn),"inconclusive [inhibitor, single point]"
3,O=[S+]1([O-])NCC2(CCCN(Cc3ccc(C(F)(F)F)cc3)C2)Nc2ccccc21 (stereo not drawn),"inconclusive [inhibitor, single point]"
4,COc1cccc(NC(=O)Cn2nc3c(cc2=O)CN(C(C)=O)CC3)c1,inactive
5,Cc1ccccc1N1Cc2c(NCC(C)C)ncnc2N(C)CC1=O,"inconclusive [inhibitor, partial curve, poor fit]"
6,CC(C)c1noc(-c2cn(C3CCN(C(=O)c4cccc(OC(F)(F)F)c4)C3)nn2)n1 (stereo not drawn),"inconclusive [inhibitor, partial curve, poor fit]"
7,Cc1ccc2c(Br)cc(Br)c(O)c2n1,"inconclusive [inhibitor, single point]"
8,COc1ccc(C(=O)N2CCC(c3nc(-c4cccn4C)no3)CC2)c(OC)c1,inactive
9,CCS(=O)(=O)NCc1nc(-c2ccc(C)cc2)c(-c2ccccn2)[nH]1,"inconclusive [inhibitor, single point]"
10,CN(C)c1cccc(C(=O)N2CCC3(CC2)NC(=O)N(c2cccc(Cl)c2)N3)c1,"inconclusive [inhibitor, single point]"
11,Cc1oc2c(c1C(=O)NC1CCCC1)CN(Cc1ccc(F)cc1)CC2,inactive
12,COc1ccccc1-c1cccc(CN2CCC(NC(=O)c3ccc(C)cc3)CC2)c1,inactive
13,Cc1ccc(C)c(C(=O)N2CCOC(CCCc3ccccc3)C2)c1 (stereo not drawn),"inconclusive [inhibitor, single point]"
14,COc1ccc(-c2cc(C[C@H]3CNCC[C@H]3CC(=O)NCc3cccs3)no2)cc1,"inconclusive [inhibitor, single point]"
15,CC(C)C[C@@H](CO)n1cc(-c2cncnc2)nn1,"inconclusive [inhibitor, full curve, poor fit]"
16,CCc1cccc(OCC(=O)c2ccc3c(c2)N(CC(=O)NCCCOC)C(=O)CO3)c1,"inconclusive [inhibitor, single point]"
17,COc1cccc(-c2cc3c(ccn3CC3CCN(C)CC3)c(N3CCOCC3)n2)c1,inactive
18,COC(=O)c1cccc(NC(=S)N[C@H]2CO[C@H]3[C@@H]2OC[C@H]3OC(=O)Nc2ccc(Oc3ccccc3)cc2)c1,inactive
19,Cc1ccc(-c2nc(-c3nnn4c3COC(c3ccc(Cl)cc3)C4)no2)s1 (stereo not drawn),"inconclusive [inhibitor, single point]"
20,CC(c1cccs1)N(C)Cc1ccc(N(C)C)cc1 (stereo not drawn),inactive
21,CC1(C(=O)NCc2ccncc2)CCCc2cnc(Nc3ccccc3F)nc21 (stereo not drawn),inactive
22,O=C(NC1CC1)[C@@H]1CCCN1c1nccc(Nc2ccccc2Cl)n1,inactive

row,SMILES,Potency
1,Cc1ccc(C(=O)C(=O)O)cc1C,"inconclusive [inhibitor, partial curve, poor fit]"
2,Cc1cc(C[C@@H]2COC[C@@H]2NC(=O)c2cnn3ccccc23)on1,inactive
3,CC(C)C(=O)N1CCCCCCNC(=O)[C@@H]2CCCC[C@@H]21,inactive
4,COc1ccc(N2CCN(C3CCCN(CC=C(C)C)C3)CC2)cc1 (stereo not drawn),"inconclusive [inhibitor, partial curve, poor fit]"
5,CCCn1c(C)c(CC(=O)N(C)Cc2nnc(C)o2)c2c1CC(C)(C)CC2=O,"inconclusive [inhibitor, partial curve]"
6,Cc1ccc(CC(=O)NC2CCN(c3cc(-c4ccccc4)[nH]n3)C2)cc1 (stereo not drawn),"inconclusive [inhibitor, single point]"
7,COc1ccc(-c2c(C(=O)NCc3ccccn3)nc3sccn23)cc1,inactive
8,CCOc1ccccc1C1NC(=O)N(CC(=O)Nc2ccc(C)c(F)c2)C2=C1C(=O)OC2 (stereo not drawn),inactive
9,CN1[C@@H](CCC(=O)NCc2cccs2)CNC(=O)[C@@H]2[C@H]1CCN2Cc1nc2ccccc2n1C,"inconclusive [inhibitor, partial curve, poor fit]"
10,O=C(c1cn2cc(-c3cccc(C(F)(F)F)c3)sc2n1)N1CCCCC1,"inconclusive [inhibitor, single point]"
11,O=C(NC1CCN(CCCCC2(C(=O)NCC(F)(F)F)c3ccccc3-c3ccccc32)CC1)c1ccccc1-c1ccc(C(F)(F)F)cc1,"inconclusive [inhibitor, single point]"
12,COc1ccc(NC(=O)/C=C/c2ccc(Cl)cc2)cc1,"inconclusive [inhibitor, single point]"
13,COc1ccccc1C(=O)N1CCCN(c2ccnc3ccnn23)CC1,inactive
14,O=C(NC1CCCCC1)c1c(-c2cccnc2)cc(=O)n2c1CCCC2,"inconclusive [inhibitor, single point]"
15,Cc1cc(C)cc(-c2ccc(CN3CCCC3C(=O)NCC(F)F)cc2)c1 (stereo not drawn),"inconclusive [inhibitor, single point]"
16,O=[S+]1([O-])NC2(CCCN(Cc3ccccc3)C2)CNc2ccccc21 (stereo not drawn),inactive
17,CN1CC(=O)N(c2ccccc2F)Cc2c(NC3CCOCC3)ncnc21,"inconclusive [inhibitor, single point]"
18,O=C(Nc1ccccc1F)N1CC(Oc2ccccc2-c2nc(-c3cnccn3)no2)C1,"inconclusive [inhibitor, single point]"
19,Cn1ccnc1CNC(=O)C[C@@H]1C[C@H]2O[C@H](CNCc3ccccc3OC(F)(F)F)[C@@H](O)[C@H]2O1,inactive
20,OCCCNc1cc(-c2ccnc(Nc3cccc(Cl)c3)n2)ccn1,"inconclusive [inhibitor, full curve, poor fit]"
21,CC(=O)Nc1cccc2c1c(Sc1ccc(Cl)cc1)c(C)n2CC(=O)O,"inconclusive [inhibitor, single point]"
